{"source": "the RNAGym collection of RNA variant scans (doi:10.1073/pnas.2313332121)", "parents": {"B1": {"name": "TPR 5TU (parent)", "chain": "GGAUCUUCUCGAUCUAACAAAAAAGACAAAUCUGCCACAAAGCUUGAGAGCAUCUUCGGAUGCAGAGGCGGCAGCCUUCGGUGGCGCGAUAGCGCCAACGUUCUCAACUAUGACACGCAAAACGCGUGCUCCGUUGAAUGGAGUUUAUCAUG"}}, "note": "Variants at the floor of the assay are shown more often than the library holds them.", "data": [{"variants_of": "B1", "assay": "polymerase ribozyme fitness, log enrichment relative to wild type (log ratio); higher = more active; in vitro selection for triplet polymerase activity", "outline": "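Mutant libraries were PCR-built and transcribed for each subunit of a heterodimeric triplet polymerase ribozyme and selected for one round in triplicate at −7 °C, frozen, before gel excision of extended constructs and streptavidin-bead capture. Input and output libraries were Illumina-sequenced, keeping genotypes with ≥10 input reads and ≥1 read per output. Fitness is a logarithmic ratio of genotype to wild-type enrichment, in base 2, using inverse-variance-weighted replicate averages.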", "values": [{"variant": "A21U A29U G50A U56A G92C G141C", "polymerase ribozyme fitness (log ratio)": "≤ -4.2"}, {"variant": "A21U C69A U78G G84A A107U", "polymerase ribozyme fitness (log ratio)": "≤ -4.2"}, {"variant": "A21G A49C A52C C69A C76G U78G A91G", "polymerase ribozyme fitness (log ratio)": "≤ -4.2"}, {"variant": "A21G A41C U56G G65A G141U", "polymerase ribozyme fitness (log ratio)": -3.42}, {"variant": "A21U A47C A52C A60G C85G C87A A121C", "polymerase ribozyme fitness (log ratio)": "≤ -4.2"}, {"variant": "A22C A28U A66G A91C G92C C99A A121U G143U U151C", "polymerase ribozyme fitness (log ratio)": "≤ -4.2"}, {"variant": "A21U A30G U61A G86A C93A G128U G141A U148C", "polymerase ribozyme fitness (log ratio)": "≤ -4.2"}, {"variant": "A22C A47C U56A C96U U101A C105G A120U", "polymerase ribozyme fitness (log ratio)": "≤ -4.2"}, {"variant": "A21U A30U A37U C103U", "polymerase ribozyme fitness (log ratio)": "≤ -4.2"}, {"variant": "A21U C79G C96U C105U U134A", "polymerase ribozyme fitness (log ratio)": "≤ -4.2"}, {"variant": "A22C C75G G84U C93U U109G G143C", "polymerase ribozyme fitness (log ratio)": "≤ -4.2"}, {"variant": "A22G C36U G84A U90G C99G U144A", "polymerase ribozyme fitness (log ratio)": "≤ -4.2"}, {"variant": "A22C U44A U53A C72G U102G C132U A137C U148G", "polymerase ribozyme fitness (log ratio)": "≤ -4.2"}, {"variant": "A21U C27A G46C G59U G65A C87G U148C", "polymerase ribozyme fitness (log ratio)": "≤ -4.2"}, {"variant": "A21U A29U C57A A91U C95G A106C C114U A142C U145C C149G", "polymerase ribozyme fitness (log ratio)": "≤ -4.2"}, {"variant": "A22C C27U C54U C85G A91U G112A A119U A147C A150C", "polymerase ribozyme fitness (log ratio)": "≤ -4.2"}, {"variant": "A21G G68U C87U C105G U111C", "polymerase ribozyme fitness (log ratio)": "≤ -4.2"}, {"variant": "A21U U53A U55G G92U U101A C108G G143C", "polymerase ribozyme fitness (log ratio)": "≤ -4.2"}, {"variant": "A21U G46C A49G C85U A97C C118U U145G", "polymerase ribozyme fitness (log ratio)": "≤ -4.2"}, {"variant": "A21U C96A G136A", "polymerase ribozyme fitness (log ratio)": 0.203}, {"variant": "A21C G50A G58A A60U C99U A113U G133A A137U", "polymerase ribozyme fitness (log ratio)": "≤ -4.2"}, {"variant": "A21U A52G G71C C85U C132U U135C G136C U151G", "polymerase ribozyme fitness (log ratio)": "≤ -4.2"}, {"variant": "A21U A26U C57U G84U C95U A97U C99A U144G", "polymerase ribozyme fitness (log ratio)": "≤ -4.2"}, {"variant": "A21G C27G C114U U135G U146A U148G", "polymerase ribozyme fitness (log ratio)": "≤ -4.2"}, {"variant": "A21C G50A A122U", "polymerase ribozyme fitness (log ratio)": -1.39}, {"variant": "A21U C43U A60C G62A C69U C93U C103G U135G", "polymerase ribozyme fitness (log ratio)": "≤ -4.2"}, {"variant": "A21U A39U C43G G50C G92A G141U", "polymerase ribozyme fitness (log ratio)": "≤ -4.2"}, {"variant": "A21C G84U U90C C116A A137C A138G", "polymerase ribozyme fitness (log ratio)": "≤ -4.2"}, {"variant": "A22G A89U C132G", "polymerase ribozyme fitness (log ratio)": "≤ -4.2"}, {"variant": "A22C G50A G83A C95U U139C G143U", "polymerase ribozyme fitness (log ratio)": "≤ -4.2"}, {"variant": "A21U G67A U77C G92A A110G", "polymerase ribozyme fitness (log ratio)": "≤ -4.2"}, {"variant": "A21G G42U A66U C69A C76U", "polymerase ribozyme fitness (log ratio)": "≤ -4.2"}, {"variant": "A22C C131G", "polymerase ribozyme fitness (log ratio)": -3.49}, {"variant": "A21U G92A", "polymerase ribozyme fitness (log ratio)": -2.72}, {"variant": "A22G C36A G71A C85A C93U G117A A137U A147U", "polymerase ribozyme fitness (log ratio)": "≤ -4.2"}, {"variant": "A21G A23U U33A G42A G88U A91C A97C A137C", "polymerase ribozyme fitness (log ratio)": "≤ -4.2"}, {"variant": "A22C U33A A52G G70A A91C C116U", "polymerase ribozyme fitness (log ratio)": "≤ -4.2"}, {"variant": "A21U A26C U55A A73G C85G U127A", "polymerase ribozyme fitness (log ratio)": "≤ -4.2"}, {"variant": "A21G A30U C35A A66U", "polymerase ribozyme fitness (log ratio)": "≤ -4.2"}, {"variant": "A21U G94U C95A U104G G117C C129A", "polymerase ribozyme fitness (log ratio)": "≤ -4.2"}, {"variant": "A22C G50C A110C G141A", "polymerase ribozyme fitness (log ratio)": "≤ -4.2"}, {"variant": "A21U A39U A52C G70A G80C G83U C99U C118U G133U U134G A137U U151G", "polymerase ribozyme fitness (log ratio)": "≤ -4.2"}, {"variant": "A21U U33A G34A C79A C118U C125A C132U G133A A142C U148G", "polymerase ribozyme fitness (log ratio)": "≤ -4.2"}, {"variant": "A22C A40G A60U G68C C99U", "polymerase ribozyme fitness (log ratio)": "≤ -4.2"}, {"variant": "A21C U55A C96A A110U", "polymerase ribozyme fitness (log ratio)": "≤ -4.2"}, {"variant": "A21C G74U U77G G94A C116G G143A", "polymerase ribozyme fitness (log ratio)": "≤ -4.2"}, {"variant": "A21U A73G C129G", "polymerase ribozyme fitness (log ratio)": -3.49}, {"variant": "A21U U44A C79A G84U C105U A150C", "polymerase ribozyme fitness (log ratio)": "≤ -4.2"}, {"variant": "A22C A39U A41C U45A C75U G86C G128U", "polymerase ribozyme fitness (log ratio)": "≤ -4.2"}, {"variant": "A21G G80U C103G U145A C149G", "polymerase ribozyme fitness (log ratio)": "≤ -4.2"}, {"variant": "A21U U56A C57U G59U C93G C125A U135C", "polymerase ribozyme fitness (log ratio)": "≤ -4.2"}, {"variant": "A21U C96G G143U", "polymerase ribozyme fitness (log ratio)": -3.69}, {"variant": "A21U U55G C93A U139C U151A", "polymerase ribozyme fitness (log ratio)": "≤ -4.2"}, {"variant": "A21U U109G C116U A142C", "polymerase ribozyme fitness (log ratio)": "≤ -4.2"}, {"variant": "A21U A37C A41C G84U G92A U104A A142U", "polymerase ribozyme fitness (log ratio)": "≤ -4.2"}, {"variant": "A22C A26G G46C A52C G70U C85G A97U G128A", "polymerase ribozyme fitness (log ratio)": "≤ -4.2"}, {"variant": "A21G G50A C63G C69A G70U A106G A107U U148G", "polymerase ribozyme fitness (log ratio)": "≤ -4.2"}, {"variant": "A22C G86U C131A", "polymerase ribozyme fitness (log ratio)": "≤ -4.2"}, {"variant": "A21U C43G C96U C99U A119U", "polymerase ribozyme fitness (log ratio)": "≤ -4.2"}, {"variant": "A21U A29U G88C A89U C95U U104G C105U C125U A142C", "polymerase ribozyme fitness (log ratio)": "≤ -4.2"}, {"variant": "A21U A28C C85G C116A G133U A142U", "polymerase ribozyme fitness (log ratio)": "≤ -4.2"}, {"variant": "A21G G88U", "polymerase ribozyme fitness (log ratio)": "≤ -4.2"}, {"variant": "A21U C76G C96U U104G C125U U134C U148G", "polymerase ribozyme fitness (log ratio)": "≤ -4.2"}, {"variant": "A22C G92C U139C G152A", "polymerase ribozyme fitness (log ratio)": "≤ -4.2"}, {"variant": "A21U A29U C35G A37U C75A C123U", "polymerase ribozyme fitness (log ratio)": "≤ -4.2"}, {"variant": "A21U A47C C85A A110U A122G G133U", "polymerase ribozyme fitness (log ratio)": "≤ -4.2"}, {"variant": "A22C A26U C43U C76A C93G C118G", "polymerase ribozyme fitness (log ratio)": "≤ -4.2"}, {"variant": "A21U U31A C35A C103G", "polymerase ribozyme fitness (log ratio)": "≤ -4.2"}, {"variant": "A22C C36U C51A C75G C87U", "polymerase ribozyme fitness (log ratio)": "≤ -4.2"}, {"variant": "A22C C108U G143C U144G", "polymerase ribozyme fitness (log ratio)": "≤ -4.2"}, {"variant": "A21U G70U C72G U146G", "polymerase ribozyme fitness (log ratio)": "≤ -4.2"}, {"variant": "A21G G62C C85A C99G U151G", "polymerase ribozyme fitness (log ratio)": "≤ -4.2"}, {"variant": "A21G A28C U55A G74C U146C", "polymerase ribozyme fitness (log ratio)": "≤ -4.2"}, {"variant": "A21U G25A U44A C72A U82G C93G A142G", "polymerase ribozyme fitness (log ratio)": "≤ -4.2"}, {"variant": "A21U C43U C51U G62U C63U C85G C132U", "polymerase ribozyme fitness (log ratio)": "≤ -4.2"}, {"variant": "A21G G58A A122U U145G", "polymerase ribozyme fitness (log ratio)": 0.687}, {"variant": "A22C C75G G140C C149G", "polymerase ribozyme fitness (log ratio)": "≤ -4.2"}, {"variant": "A21C U78G C116A", "polymerase ribozyme fitness (log ratio)": "≤ -4.2"}, {"variant": "A21U G62A", "polymerase ribozyme fitness (log ratio)": 0.138}, {"variant": "A21G A39C C69A C125A U151G", "polymerase ribozyme fitness (log ratio)": "≤ -4.2"}, {"variant": "A21C G50C C63U C93G", "polymerase ribozyme fitness (log ratio)": -1.78}, {"variant": "A21U C93A", "polymerase ribozyme fitness (log ratio)": -1.74}, {"variant": "A22C G50C C114A", "polymerase ribozyme fitness (log ratio)": "≤ -4.2"}, {"variant": "A21C G46C C69U G86U C87U A150U", "polymerase ribozyme fitness (log ratio)": "≤ -4.2"}]}]}
